Values of other authors, collected in PMC4976356, “Structural insight into β-Clamp and its interaction with DNA Ligase in Helicobacter pylori” (Scientific Reports, 2016).

Test system: Ecβ-clamp

B1: MutS: MutS, binds to β-clamp in E. coli (protein, UniProt P23909 1-853, looked up)
DNA mismatch repair protein …: MSAIENFDAHTPMMQQYLRLKAQHPEILLFYRMGDFYELFYDDAKRASQLLDISLTKRGASAGEPIPMAGIPYHAVENYLAKLVNQGESVAICEQIGDPATSKGPVERKVVRIVTPGTISDEALLQERQDNLLAAIWQDSKGFGYATLDISSGRFRLSEPADRETMAAELQRTNPAELLYAEDFAEMSLIEGRRGLRRRPLWEFEIDTARQQLNLQFGTRDLVGFGVENAPRGLCAAGCLLQYAKDTQRTTLPHIRSITMEREQDSIIMDAATRRNLEITQNLAGGAENTLASVLDCTVTPMGSRMLKRWLHMPVRDTRVLLERQQTIGALQDFTAGLQPVLRQVGDLERILARLALRTARPRDLARMRHAFQQLPELRAQLETVDSAPVQALREKMGEFAELRDLLERAIIDTPPVLVRDGGVIASGYNEELDEWRALADGATDYLERLEVRERERTGLDTLKVGFNAVHGYYIQISRGQSHLAPINYMRRQTLKNAERYIIPELKEYEDKVLTSKGKALALEKQLYEELFDLLLPHLEALQQSASALAELDVLVNLAERAYTLNYTCPTFIDKPGIRITEGRHPVVEQVLNEPFIANPLNLSPQRRMLIITGPNMGGKSTYMRQTALIALMAYIGSYVPAQKVEIGPIDRIFTRVGAADDLASGRSTFMVEMTETANILHNATEYSLVLMDEIGRGTSTYDGLSLAWACAENLANKIKALTLFATHYFELTQLPEKMEGVANVHLDALEHGDTIAFMHSVQDGAASKSYGLAVAALAGVPKEVIKRARQKLRELESISPNAAATQVDGTQMSLLSVPEETSPAVEALENLDPDSLTPRQALEWIYRLKSLV
Q: For B1, which “interaction with E. coli β-clamp (in words)” value is on record?
A: will also bind to β-clamp in E. coli
